Over roughly 81,000 sequences, “one-hybrid fitness for binding parS DNA” has its median near -0.17; the highest 2% begin near 0.51. The list shows a part of the results.
B1: Caulobacter ParB omega fusion; a variant is named by its letters at X, in order, B8GW30 (parent)
chain: MESVVVGEPGMSEGRRGLGRGLSALLGEVDAAPAQAPGEQLGGSREAPIEILQRNPDQPRRTFREEDLEDLSNSIREKGVLQPILVRPSPDTAGEYQIVAGERAWRAAQRAGLKTVPIMVRELDDLAVLEIGIIENVQRADLNVLEEALSYKVLMEKFERTQENIAQTIGKSXSHVANXMRLLXLPDEVQSYLVSGELTAXHARAIAAAADPVALAKQIIEGGLSVRETEALARKAPNLSAGKSKGGRPPRVKDTDTQALESDLSSVLGLDVSIDHRGSTGTLTITYATLEQLDDLCNRLTRGI

Variants of: B1
Test: one-hybrid fitness for binding parS DNA (scaled: cognate 1, non-cognate 0); higher = stronger binding
Details: with parS DNA site
Procedure, shortened: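 Fitness is the rescaled log change in variant-to-wild-type read ratio, measured by Illumina sequencing of plasmids before and after bacterial one-hybrid selection. The scale puts cognate at 1 and non-cognate at 0. Selection of Caulobacter ParB libraries, four specificity codons randomised, took place in E. coli USO with a HIS3 reporter, site 19 bp from the promoter, over 48 hours at 37°C on M9-minus-histidine with 0.1 mM IPTG and 5 mM 3-AT.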

Row | Variant | one-hybrid fitness for binding parS DNA
1 | KYRP | ≤ 0.2
2 | GHSC | ≤ 0.2
3 | IDTS | ≤ 0.2
4 | IRCN | ≤ 0.2
5 | QTHD | ≤ 0.2
6 | RQPY | ≤ 0.2
7 | ITAV | ≤ 0.2
8 | CSGA | ≤ 0.2
9 | AWRR | ≤ 0.2
10 | TILI | ≤ 0.2
11 | KRKK | ≤ 0.2
12 | EWSS | ≤ 0.2
13 | PPPE | ≤ 0.2
14 | HGDT | ≤ 0.2
15 | CRNY | ≤ 0.2
16 | RKDI | ≤ 0.2
17 | SKQS | ≤ 0.2
18 | LVMV | ≤ 0.2
19 | WMRG | ≤ 0.2
20 | LYTM | ≤ 0.2
21 | DAID | ≤ 0.2
22 | ACSL | ≤ 0.2
23 | DCGT | ≤ 0.2
24 | LKYS | ≤ 0.2
25 | YTAE | ≤ 0.2
26 | VCRR | ≤ 0.2

Row | Variant | one-hybrid fitness for binding parS DNA
27 | HNSS | ≤ 0.2
28 | DCPF | ≤ 0.2
29 | VPPK | ≤ 0.2
30 | WPQD | ≤ 0.2
31 | DRSS | ≤ 0.2
32 | TLGC | ≤ 0.2
33 | SYSR | ≤ 0.2
34 | KQRR | ≤ 0.2
35 | LDSL | ≤ 0.2
36 | QRFK | ≤ 0.2
37 | TGRS | ≤ 0.2
38 | RCTS | 0.984
39 | QLKY | ≤ 0.2
40 | SMIE | ≤ 0.2
41 | NSHY | ≤ 0.2
42 | YMAS | ≤ 0.2
43 | YLRL | ≤ 0.2
44 | KKNG | ≤ 0.2
45 | FPPL | ≤ 0.2
46 | GGEG | ≤ 0.2
47 | ECGC | ≤ 0.2
48 | FCFG | ≤ 0.2
49 | INND | ≤ 0.2
50 | LKPC | ≤ 0.2
51 | PYWE | ≤ 0.2
52 | PQAD | ≤ 0.2

Row | Variant | one-hybrid fitness for binding parS DNA
53 | QRME | ≤ 0.2
54 | LDAV | ≤ 0.2
55 | CPHC | ≤ 0.2
56 | RDIN | ≤ 0.2
57 | QAYA | ≤ 0.2
58 | VNTL | ≤ 0.2
59 | ATDE | ≤ 0.2
60 | TGFL | ≤ 0.2
61 | HWMT | ≤ 0.2
62 | MMMK | ≤ 0.2
63 | KTLN | ≤ 0.2
64 | HNVV | ≤ 0.2
65 | YESM | ≤ 0.2
66 | QESW | ≤ 0.2
67 | DNWT | ≤ 0.2
68 | MCMC | ≤ 0.2
69 | PNWY | ≤ 0.2
70 | CRST | ≤ 0.2
71 | CQQS | ≤ 0.2
72 | RAWT | 0.809
73 | ICWR | ≤ 0.2
74 | GRKF | ≤ 0.2
75 | GEGT | ≤ 0.2
76 | LGIG | ≤ 0.2
77 | LMGS | ≤ 0.2
78 | QWPT | ≤ 0.2

Row | Variant | one-hybrid fitness for binding parS DNA
79 | RGSV | ≤ 0.2
80 | QTFY | ≤ 0.2
81 | CRER | ≤ 0.2
82 | MVDQ | ≤ 0.2
83 | NHMW | ≤ 0.2
84 | VCTA | ≤ 0.2
85 | HSYM | ≤ 0.2
86 | FFLW | ≤ 0.2
87 | RMLC | 0.983
88 | PSYW | ≤ 0.2
89 | GAHP | ≤ 0.2
90 | FYRT | ≤ 0.2
91 | MPKF | ≤ 0.2
92 | SDYS | ≤ 0.2
93 | VCNC | ≤ 0.2
94 | YRPM | ≤ 0.2
95 | KQDC | ≤ 0.2
96 | FRLS | ≤ 0.2
97 | VSIP | ≤ 0.2
98 | PGNY | ≤ 0.2
99 | WCPL | ≤ 0.2
100 | LVHY | ≤ 0.2
101 | MSGM | ≤ 0.2
102 | VAKY | ≤ 0.2
103 | LSNR | ≤ 0.2
104 | TEQS | ≤ 0.2

Row | Variant | one-hybrid fitness for binding parS DNA
105 | TMST | ≤ 0.2
106 | HMAI | ≤ 0.2
107 | CSAW | ≤ 0.2
108 | CDNY | ≤ 0.2
109 | WCLR | ≤ 0.2
110 | NNRI | ≤ 0.2
111 | HDTS | ≤ 0.2
112 | TITG | ≤ 0.2
113 | CSRY | ≤ 0.2
114 | PSPR | ≤ 0.2
115 | SHLA | ≤ 0.2
116 | SSSS | ≤ 0.2
117 | LCIG | ≤ 0.2
118 | LSLE | ≤ 0.2
119 | WLHP | ≤ 0.2
120 | HSRR | ≤ 0.2
121 | WFAK | ≤ 0.2
122 | QQCK | ≤ 0.2
123 | QMHC | ≤ 0.2
124 | PVPL | ≤ 0.2
125 | RTQG | 1
126 | GERV | ≤ 0.2
127 | PTLC | ≤ 0.2
128 | NAAT | ≤ 0.2
129 | ISDR | ≤ 0.2
130 | ADTC | ≤ 0.2

Row | Variant | one-hybrid fitness for binding parS DNA
131 | RAVV | ≤ 0.2
132 | MNTR | ≤ 0.2
133 | TPAK | ≤ 0.2
134 | NKHW | ≤ 0.2
135 | PKTP | ≤ 0.2
136 | RGAP | ≤ 0.2
137 | SSKD | ≤ 0.2
138 | RAVQ | 0.23
139 | RRAP | ≤ 0.2
140 | TRDH | ≤ 0.2
141 | TIKY | ≤ 0.2
142 | QELR | ≤ 0.2
143 | QVVL | ≤ 0.2
144 | ICPF | ≤ 0.2
145 | QLFC | ≤ 0.2
146 | TVHW | ≤ 0.2
147 | PRPA | ≤ 0.2
148 | DLAK | ≤ 0.2
149 | EECS | ≤ 0.2
150 | MHLS | ≤ 0.2
151 | QISR | ≤ 0.2
152 | MLLE | ≤ 0.2
153 | FRKS | ≤ 0.2

From a collection of fitness landscapes (doi:10.1016/j.celrep.2020.107928)
